# Measured values reported in patent publication US8404683B2, “Inhibitors of the interaction between MDM2 and P53” (Janssen Pharmaceutical N.V., priority 2004, dated 2013).
# The name of at least one read-out is uncertain.
# Tested on: p53 in U87MG cells
# Assay: p53 ELISA (preservation of p53 in U87MG cells)
# Type: cell-based, human
# Details: lowest dose giving at least 130% of the value for p53 present in the control; U87MG cells treated 16 hours
row,SMILES,p53-elisa LAD
1,c1ccc2c(Nc3ccc(NCCc4c[nH]c5ccccc45)cc3)ccnc2c1 [Compound 1],3.0E−08
2,CCOc1cc(Nc2ccncc2)ccc1NCCc1c[nH]c2ccccc12 [Compound 2],3.0E−07
3,O=c1cc(Nc2ccc(NCCc3c[nH]c4ccccc34)cc2)c2ccccc2[nH]1 [Compound 3],>1.0E−05
4,c1ccc2c(CCNc3ccc(Nc4ccnc5c4CCC5)cc3)c[nH]c2c1 [Compound 4],3.0E−08
5,c1ccc2c(CCNc3ccc(Nc4ccnc5c4CCCC5)cc3)c[nH]c2c1 [Compound 5],3.0E−08
6,c1cncc(Nc2ccc(NCCc3c[nH]c4ccccc34)cc2)c1 [Compound 6],>1.0E−05
7,COc1ccc2c(CNc3ccc(Nc4ccncc4)cc3)c[nH]c2c1 [Compound 7],1.0E−05
8,O=C(CCc1c[nH]c2ccccc12)Nc1ccc(Nc2ccncc2)cc1 [Compound 8],>1.0E−05
9,c1ccc2c(CCNc3ccc(NCc4ccncc4)cc3)c[nH]c2c1 [Compound 9],>1.0E−05
10,Cn1cc(CCN(c2ccncc2)c2ccc(Nc3ccncc3)cc2)c2ccccc21 [Compound 10],>1.0E−05
11,c1ccc2c(CCNc3ccc(CNc4ccncc4)cc3)c[nH]c2c1 [Compound 11],>1.0E−05
12,Cc1cc(Nc2ccc(NCCc3c[nH]c4ccccc34)cc2)c2ccccc2n1 [Compound 12],3.0E−07
13,COc1ccc2c(CCNc3ccc(Nc4ccnc5ccccc45)cc3)c[nH]c2c1 [Compound 13],1.0E−07
14,OCc1cc(Nc2ccc(NCCc3c[nH]c4ccccc34)cc2)c2ccccc2n1 [Compound 14],3.0E−07
15,COC(=O)c1ccc2nc(C)cc(Nc3ccc(NCCc4c[nH]c5ccccc45)cc3)c2c1 [Compound 15],>1.0E−05
16,COc1cc(Nc2ccnc3ccccc23)ccc1NCCc1c[nH]c2ccccc12 [Compound 16],>1.0E−05
17,c1ccc(COc2cc(Nc3ccnc4ccccc34)ccc2NCCc2c[nH]c3ccccc23)cc1 [Compound 17],>1.0E−05
18,NC(=O)C(Cc1c[nH]c2ccccc12)Nc1ccc(Nc2ccnc3ccccc23)cc1 (stereo not shown) [Compound 18],1.0E−07
19,Cc1cc(Nc2ccc(NCCc3c[nH]c4ccccc34)cc2)c2cc(CO)ccc2n1 [Compound 19],3.0E−07
20,COc1ccc2nc(C)cc(Nc3ccc(NCCc4c[nH]c5ccccc45)cc3)c2c1 [Compound 20],3.0E−07
21,COc1cccc2c(Nc3ccc(NCCc4c[nH]c5ccccc45)cc3)ccnc12 [Compound 21],3.0E−08

row,SMILES,p53-elisa LAD
1,Cc1cccc2c(Nc3ccc(NCCc4c[nH]c5ccccc45)cc3)ccnc12 [Compound 22],1.0E−07
2,O=[N+]([O-])c1cccc2c(Nc3ccc(NCCc4c[nH]c5ccccc45)cc3)ccnc12 [Compound 23],1.0E−06
3,COc1ccc2nccc(Nc3ccc(NCCc4c[nH]c5ccccc45)cc3)c2c1 [Compound 24],1.0E−07
4,Nc1cccc2c(Nc3ccc(NCCc4c[nH]c5ccccc45)cc3)ccnc12 [Compound 25],>1.0E−05
5,Clc1ccc2c(CCNc3ccc(Nc4ccnc5ccccc45)cc3)c[nH]c2c1 [Compound 26],3.0E−06
6,Oc1cccc2c(Nc3ccc(NCCc4c[nH]c5ccccc45)cc3)ccnc12 [Compound 27],3.0E−06
7,Cn1cc(CCNc2ccc(Nc3ccnc4ccccc34)cc2)c2ccccc21 [Compound 28],>1.0E−05
8,N#Cc1ccc2nccc(Nc3ccc(NCCc4c[nH]c5ccccc45)cc3)c2c1 [Compound 29],3.0E−06
9,CCCc1cc(Nc2ccc(NCCc3c[nH]c4ccccc34)cc2)c2ccccc2n1 [Compound 30],>1.0E−05
10,FC(F)(F)c1cccc2c(Nc3ccc(NCCc4c[nH]c5ccccc45)cc3)ccnc12 [Compound 31],>1.0E−05
11,COc1ccc2[nH]cc(CCNc3ccc(Nc4ccnc5ccccc45)cc3)c2c1 [Compound 32],3.0E−06
12,CCc1cc(Nc2ccc(NCCc3c[nH]c4ccccc34)cc2)c2ccccc2n1 [Compound 33],>1.0E−05
13,c1ccc2c(c1)NCC2CCNc1ccc(Nc2ccnc3ccccc23)cc1 (stereo not shown) [Compound 34],>1.0E−05
14,CCOc1cc(Nc2ccnc3ccccc23)ccc1NCCc1c[nH]c2ccccc12 [Compound 35],1.0E−06
15,c1ccc2c(CCNc3ccc(Nc4ccncc4)cc3)c[nH]c2c1 [Compound 36],1.0E−06
16,OCc1cc(Nc2ccc(NCCc3c[nH]c4ccccc34)cc2)ccn1 [Compound 37],3.0E−07
17,c1ccc(Cc2cc(Nc3ccc(NCCc4c[nH]c5ccccc45)cc3)ccn2)cc1 [Compound 38],>1.0E−05
18,c1ccc(-c2cc(Nc3ccc(NCCc4c[nH]c5ccccc45)cc3)ccn2)cc1 [Compound 39],1.0E−05
19,c1ccc(Sc2cc(NCCc3c[nH]c4ccccc34)ccc2Nc2ccncc2)cc1 [Compound 40],>1.0E−05
20,CN(CCc1c[nH]c2ccccc12)c1ccc(Nc2ccncc2)cc1 [Compound 41],>1.0E−05
21,NC(=O)c1cc(Nc2ccc(NCCc3c[nH]c4ccccc34)cc2)ccn1 [Compound 42],>1.0E−05

row,SMILES,p53-elisa LAD
1,OC(c1ccccc1)c1cnccc1Nc1ccc(NCCc2c[nH]c3ccccc23)cc1 (stereo not shown) [Compound 43],>1.0E−05
2,O=C(c1ccc(Cl)cc1)c1cc(Nc2ccc(NCCc3c[nH]c4ccccc34)cc2)ccn1 [Compound 44],>1.0E−05
3,Clc1cc(Nc2ccncc2)ccc1NCCc1c[nH]c2ccccc12 [Compound 45],>1.0E−05
4,Cc1cc(Nc2ccc(NCCc3c[nH]c4ccccc34)cc2)ccn1 [Compound 46],1.0E−06
5,Cc1cc(Nc2ccncc2)ccc1NCCc1c[nH]c2ccccc12 [Compound 47],1.0E−05
6,OCC(Cc1c[nH]c2ccccc12)Nc1ccc(Nc2ccncc2)cc1 (stereo not shown) [Compound 48],1.0E−05
7,O=C(c1cc(Nc2ccc(NCCc3c[nH]c4ccccc34)cc2)ccn1)N1CCCC1 [Compound 49],>1.0E−05
8,Clc1ccc2c(CCNc3ccc(Nc4ccncc4)cc3)c[nH]c2c1 [Compound 50],3.0E−06
9,OCCc1cc(Nc2ccc(NCCc3c[nH]c4ccccc34)cc2)ccn1 [Compound 51],>1.0E−05
10,O=C(NCCO)c1cc(Nc2ccc(NCCc3c[nH]c4ccccc34)cc2)ccn1 [Compound 52],>1.0E−05
11,c1ccc2c(CCNc3ccc(Nc4ccnc(CN5CCCC5)c4)cc3)c[nH]c2c1 [Compound 53],>1.0E−05
12,COc1ccc2c(CCNc3ccc(Nc4ccncc4)cc3)c[nH]c2c1 [Compound 54],1.0E−06
13,NCc1cc(Nc2ccc(NCCc3c[nH]c4ccccc34)cc2)ccn1 [Compound 55],3.0E−07
14,O=C(c1ccccc1)c1cc(Nc2ccc(NCCc3c[nH]c4ccccc34)cc2)ccn1 [Compound 56],>1.0E−05
15,OC(c1ccccc1)c1cc(Nc2ccc(NCCc3c[nH]c4ccccc34)cc2)ccn1 (stereo not shown) [Compound 57],>1.0E−05
16,O=C(O)c1cc(Nc2ccc(NCCc3c[nH]c4ccccc34)cc2)ccn1 [Compound 58],>1.0E−05
17,CN(C)CCNCc1cc(Nc2ccc(NCCc3c[nH]c4ccccc34)cc2)ccn1 [Compound 59],1.0E−06
18,Cc1cnccc1Nc1ccc(NCCc2c[nH]c3ccccc23)cc1 [Compound 60],>1.0E−05
19,c1ccc(COc2cc(Nc3ccncc3)ccc2NCCc2c[nH]c3ccccc23)cc1 [Compound 61],>1.0E−05
20,COc1ccc2[nH]cc(CCNc3ccc(Nc4ccncc4)cc3)c2c1 [Compound 62],>1.0E−05
21,CNC(=O)c1cc(Nc2ccc(NCCc3c[nH]c4ccccc34)cc2)ccn1 [Compound 63],>1.0E−05

row,SMILES,p53-elisa LAD
1,COCc1cc(Nc2ccc(NCCc3c[nH]c4ccccc34)cc2)ccn1 [Compound 64],1.0E−06
2,NC(=O)C(Cc1c[nH]c2ccccc12)Nc1ccc(Nc2ccncc2)cc1 (stereo not shown) [Compound 65],>1.0E−05
3,COc1cc(Nc2ccncc2)ccc1NCCc1c[nH]c2ccccc12 [Compound 66],3.0E−07
4,O=C(OCc1ccccc1)C(Cc1c[nH]c2ccccc12)Nc1ccc(Nc2ccncc2)cc1 (stereo not shown) [Compound 67],>1.0E−05
5,c1ccc2c(c1)NCC2CCNc1ccc(Nc2ccncc2)cc1 (stereo not shown) [Compound 68],>1.0E−05
6,CCOc1cc(Nc2ccnc(CO)c2)ccc1NCCc1c[nH]c2cc(OC)ccc12 [Compound 69],1.0E−07
7,O=C(O)Cc1cc(Nc2ccc(NCCc3c[nH]c4ccccc34)cc2)ccn1 [Compound 70],>1.0E−05
8,c1ccc2c(CCCNc3ccc(Nc4ccncc4)cc3)c[nH]c2c1 [Compound 71],>1.0E−05
9,c1ccc2c(CCCNCc3ccc(Nc4ccncc4)cc3)c[nH]c2c1 [Compound 72],>1.0E−05
10,c1ccc2c(CCCN(CCCc3c[nH]c4ccccc34)Cc3ccc(Nc4ccncc4)cc3)c[nH]c2c1 [Compound 73],>1.0E−05
11,c1ccc2c(CCCCNc3ccc(Nc4ccncc4)cc3)c[nH]c2c1 [Compound 74],>1.0E−05
12,c1ccc2c(CCNCCc3ccc(Nc4ccncc4)cc3)c[nH]c2c1 [Compound 75],>1.0E−05
13,c1cncc(Nc2cccc(NCCc3c[nH]c4ccccc34)c2)c1 [Compound 76],>1.0E−05
14,Cc1[nH]c2ccccc2c1CCNc1ccc(Nc2ccncc2)cc1 [Compound 77],>1.0E−05
15,c1cncc(Nc2ccc(NCc3c[nH]c4ccccc34)cc2)c1 [Compound 78],>1.0E−05
16,c1ccc2c(CNCc3ccc(Nc4ccncc4)cc3)c[nH]c2c1 [Compound 79],>1.0E−05
17,O=C(CCc1c[nH]c2ccccc12)Nc1cccc(Nc2ccncc2)c1 [Compound 82],>1.0E−05
18,CN(c1ccncc1)c1ccc(NCCc2c[nH]c3ccccc23)cc1 [Compound 83],>1.0E−05
19,c1cc(NCCCc2c[nH]c3ccccc23)cc(Nc2ccncc2)c1 [Compound 84],>1.0E−05
